# Reference: PubChem BioAssay AID504333 (National Center for Advancing Translational Sciences (NCATS), 2011)
# Hit rate of the full screen: of about 360,000 compounds, about 16,000 (4.4%) were called active. Inconclusive means that the source gave no clear call. Such entries were picked first, then a sample of the others. Calls come from the whole dose curve; as a rule, active = well fitted inhibition curve with a large enough effect; inconclusive = small, poorly fitted or top-dose-only effect; inactive = no such curve, though single readings can be large or run the other way. Where the call is inconclusive, the potency comes from a doubtful curve fit.
# Molecular target: Bromodomain adjacent to zinc finger domain protein 2B (Homo sapiens) (UniProt Q9UIF8)
# Assay: qHTS Assay for Inhibitors of BAZ2B; note: nearly all actives have a fitted effect of over 60% in size
# Conditions: AlphaScreen BAZ2B-H3K14Ac peptide displacement; activity change, negative = inhibition: at 114 µM (top of the series)
# Description: BAZ2B (bromodomain adjacent to zinc finger domain, 2B) belongs to a family of ubiquitously expressed bromodomain containing proteins, which biological function has not yet been elucidated. […] The interaction of BAZ2B with ISWI mediated by the BAZ1 motif has recently been described. […] The protocol is based on the AlphaScreen (PerkinElmer) displacement assay developed by NCGC [5], but uses the peptide ligand Biot-H3K14Ac, a high affinity binding partner for BAZ2B, in an AlphaScreen format. Although AlphaScreen has significant advantages with its utility in a variety of epigenetic target assays, the primary screening data provided in this deposition should be used with caution due to the prevalence of screening artifacts. The top compound concentration tested was 110uM in this assay, which increases number of actives and potential artifacts. An AlphaScreen counterscreen is highly recommended to be run against any putative actives to eliminate non-specific artifacts. Alternatively, one can use other AlphaScreen assays in PubChem to filter out promiscuous hits. Eberharter, A. et al. ACF1 improves the effectiveness of nucleosome mobilization by ISWI through PHD-histone contacts. The EMBO journal 23, 4029-4039. 2004. PMID: 15457208 [2] Jones, M.H. et al. A novel family of bromodomain genes. Genomics 63, 40-45. 2000. PMID: 10662543 [3] Yasgar, et al. Compound Management for Quantitative High-Throughput Screening. JALA. 2008 Apr;13(2):79-89. PMID: 18496600 [4] Inglese, et al. Quantitative high-throughput screening: a titration-based approach that efficiently identifies biological activities in large chemical libraries. Proc Natl Acad Sci. 1;103(31):11473-8. 2006. PMID: 16864780 [5] Quinn et al. A chemiluminescence-based method for identification of histone lysine methyltransferase inhibitors. Mol Biosyst 6(5): 782-8. 2010. PMID: 20567762 [6] Baell,Holloway. New substructure filters for removal of pan assay interference compounds (PAINS) from screening libraries and for their exclusion in bioassays. J Med Chem. 53(7):2719-40. 2010. PMID: 20131845 NIH Molecular Libraries Probe Production Network [MLPCN] NIH Chemical Genomics Center [NCGC] Structural Genomics Consortium (SGC) NIH Grant: 5U54 MH084681-02
# To each well of a 1,536w plate, 2ul of BAZ2B protein (final 50nM) and 1ul biotinylated histone peptide acetylated at Lys14 [b-H3(5-23)K14Ac] (final 50nM) were added in 1x PBS buffer, pH 7.4, containing 0.01% Tween-20, using a nanoliter dispenser. Formation of a protein-peptide complex proceeded at room temperature for 30 min. A Kalypsys pin-tool was employed to transfer 23 nL of library compound solution in DMSO to each well. Following a 30 min incubation of the protein-peptide complex with compounds at room temperature, a mixture of 40 ug/mL each streptavidin-coated donor and nickel chelate acceptor AlphaScreen beads (final 10 ug/mL) were added in a 1ul dispense for a final volume of 4ul. A brief centrifugation followed (1000rpm, 1 min) and were then incubated protected from the light for 20 min at room temperature. Plates were read on an EnVision multilabel plate reader using the 1,536 plate HTS AlphaScreen aperture (excitation time 80 ms, measurement time 240 ms).
# % is set by controls: 0 for no effect and ±100 for the full control effect; potency is the fitted concentration of half-maximal effect; tags give direction and shape of the fitted curve.
# Chain of UniProt Q9UIF8 (Q9UIF8 whole entry, looked up, the tested form may be a part): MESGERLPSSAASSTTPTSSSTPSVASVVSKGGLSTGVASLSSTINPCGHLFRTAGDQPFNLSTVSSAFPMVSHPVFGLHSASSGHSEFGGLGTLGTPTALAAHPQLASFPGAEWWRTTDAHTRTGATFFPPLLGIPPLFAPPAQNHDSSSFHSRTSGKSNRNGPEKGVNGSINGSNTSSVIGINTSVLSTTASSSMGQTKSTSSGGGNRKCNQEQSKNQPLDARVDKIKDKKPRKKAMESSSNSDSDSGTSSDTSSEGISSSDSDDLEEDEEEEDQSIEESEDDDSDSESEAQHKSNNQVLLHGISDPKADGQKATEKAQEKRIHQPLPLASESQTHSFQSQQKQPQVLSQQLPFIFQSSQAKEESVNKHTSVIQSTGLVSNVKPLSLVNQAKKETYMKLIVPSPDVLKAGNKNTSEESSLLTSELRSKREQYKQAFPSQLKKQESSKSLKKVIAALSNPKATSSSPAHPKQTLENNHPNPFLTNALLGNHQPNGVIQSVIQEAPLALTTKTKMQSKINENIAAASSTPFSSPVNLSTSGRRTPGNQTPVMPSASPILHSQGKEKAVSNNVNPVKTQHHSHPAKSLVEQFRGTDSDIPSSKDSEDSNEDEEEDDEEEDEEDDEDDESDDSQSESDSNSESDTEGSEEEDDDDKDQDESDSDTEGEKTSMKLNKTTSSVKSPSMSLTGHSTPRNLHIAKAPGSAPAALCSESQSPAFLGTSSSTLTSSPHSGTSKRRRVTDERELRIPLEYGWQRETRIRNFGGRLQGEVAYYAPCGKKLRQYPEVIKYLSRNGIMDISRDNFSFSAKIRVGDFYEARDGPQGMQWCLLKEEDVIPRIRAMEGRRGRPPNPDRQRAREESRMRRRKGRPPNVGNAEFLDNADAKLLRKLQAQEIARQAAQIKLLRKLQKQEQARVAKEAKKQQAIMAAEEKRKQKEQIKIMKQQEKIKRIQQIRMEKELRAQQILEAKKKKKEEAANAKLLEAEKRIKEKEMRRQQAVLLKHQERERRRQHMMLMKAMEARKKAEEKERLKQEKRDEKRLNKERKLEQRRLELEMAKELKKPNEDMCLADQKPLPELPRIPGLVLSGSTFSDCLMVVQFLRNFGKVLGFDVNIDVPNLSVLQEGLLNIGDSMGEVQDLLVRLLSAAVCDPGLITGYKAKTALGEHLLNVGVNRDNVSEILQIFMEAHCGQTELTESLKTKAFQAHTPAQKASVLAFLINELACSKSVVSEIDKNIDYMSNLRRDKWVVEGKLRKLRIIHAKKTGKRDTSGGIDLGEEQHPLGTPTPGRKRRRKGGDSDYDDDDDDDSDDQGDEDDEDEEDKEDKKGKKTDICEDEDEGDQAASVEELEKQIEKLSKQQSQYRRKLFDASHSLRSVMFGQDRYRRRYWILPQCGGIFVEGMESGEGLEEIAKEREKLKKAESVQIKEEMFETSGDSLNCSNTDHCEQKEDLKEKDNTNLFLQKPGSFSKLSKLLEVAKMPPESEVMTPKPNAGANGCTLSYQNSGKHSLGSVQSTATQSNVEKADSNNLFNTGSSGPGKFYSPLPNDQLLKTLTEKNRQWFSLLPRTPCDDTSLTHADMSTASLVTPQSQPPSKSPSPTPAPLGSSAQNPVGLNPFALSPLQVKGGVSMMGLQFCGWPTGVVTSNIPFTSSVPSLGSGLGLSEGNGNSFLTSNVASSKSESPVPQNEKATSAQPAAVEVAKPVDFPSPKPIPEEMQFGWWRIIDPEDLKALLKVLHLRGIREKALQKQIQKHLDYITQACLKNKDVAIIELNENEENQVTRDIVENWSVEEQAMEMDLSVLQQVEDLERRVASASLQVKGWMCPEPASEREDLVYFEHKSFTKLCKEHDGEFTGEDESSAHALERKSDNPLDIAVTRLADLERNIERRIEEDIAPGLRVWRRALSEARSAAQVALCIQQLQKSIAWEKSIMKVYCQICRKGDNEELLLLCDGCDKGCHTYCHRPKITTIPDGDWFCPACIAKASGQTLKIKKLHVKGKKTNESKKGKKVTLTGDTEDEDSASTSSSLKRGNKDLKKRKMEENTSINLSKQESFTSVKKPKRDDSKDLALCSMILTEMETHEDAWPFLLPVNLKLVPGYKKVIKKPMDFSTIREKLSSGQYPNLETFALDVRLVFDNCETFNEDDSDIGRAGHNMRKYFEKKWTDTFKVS
SMILES,"activity change, negative = inhibition",Potency
COc1cc2ncnc(NCc3ccc4c(c3)OCO4)c2cc1OC,inactive: -9.32%,–
Cc1cc(F)ccc1NCc1ccccc1-c1nnc(-c2ccccc2Cl)o1,inactive: -38.8%,–
O=C(CSc1ccc(Cl)cc1)NNC(=O)c1ccncc1,inactive: -3.14%,–
COc1ccc2[nH]c(C(=O)N/N=C/c3ccc(O)cc3O)cc2c1,–,"inconclusive: 79.4 µM [inhibitor, single point]"
Cc1csc(NC(=O)CSc2ccc(-c3ccccn3)nn2)n1,–,active: 7.08 µM
CCOc1ccc(Br)cc1C1=NN(C(C)=O)C(c2ccc([N+](=O)[O-])s2)O1 (configuration not stated),–,"inconclusive: 50.1 µM [inhibitor, partial curve]"
CCc1ccc(CNC(=O)CSc2cc(=O)n(C)c3ccc(Cl)cc23)cc1,inactive: -12.9%,–
c1ccc2c3c([nH]c2c1)-c1[nH]ncc1CC3,–,"inconclusive: 39.8 µM [inhibitor, partial curve]"
COc1ccc(NC(=S)Nc2cccc([N+](=O)[O-])c2)cc1,–,"inconclusive: 89.1 µM [inhibitor, single point]"
Cc1cccc(NC(=O)N2CCC(CN3CCc4ccccc4C3)CC2)c1C,inactive: -0.909%,–
S=c1[nH]nc(-c2cc(-c3ccccc3)n[nH]2)n1/N=C/c1c2ccccc2cc2ccccc12,–,"inconclusive: 63.1 µM [inhibitor, partial curve, poor fit]"
N#Cc1ccc(OS(=O)(=O)c2ccc(-c3ccon3)s2)cc1,–,"inconclusive: 89.1 µM [inhibitor, single point]"
COc1cc(NS(C)(=O)=O)ccc1Nc1c2ccccc2nc2ccccc12,–,"inconclusive: 44.7 µM [inhibitor, partial curve]"
Cc1ccc(NC2=C(Cl)C(=O)OC2OC(=O)c2ccco2)cc1C (configuration not stated),inactive: -3.54%,–
N#Cc1nc(-c2ccc(Cl)cc2)oc1NCC1CCCO1 (configuration not stated),–,"inconclusive: 44.7 µM [inhibitor, partial curve]"
CC(C)CCN(C(=O)C1CSC2(C)CCC(=O)N12)c1c(N)n(Cc2ccccc2)c(=O)[nH]c1=O (configuration not stated),–,"inconclusive: 89.1 µM [inhibitor, single point]"
COc1ccc2[nH]cc(CCNC(=O)c3ccc4ccccc4n3)c2c1,–,"inconclusive: 28.2 µM [inhibitor, full curve]"
O=C(O)CSCC(=O)NCc1ccccc1Cl,–,"inconclusive: 89.1 µM [inhibitor, single point]"
COC(=O)C1=C(C)N(c2cc(C)cc(C)c2)/C(=C/c2ccco2)C1=O,–,active: 50.1 µM
COc1ccc(OCCCN(C)Cc2ccccc2)cc1,–,"inconclusive: 79.4 µM [inhibitor, single point]"
COc1ccc(N2C(=O)CC(S/C(N)=N/N=C/c3ccnc4ccccc34)C2=O)cc1 (configuration not stated),inactive: -10.6%,–
Cc1ccc(Sc2ccc(CN3CCCC3)cc2[N+](=O)[O-])cc1,–,"inconclusive: 39.8 µM [inhibitor, partial curve]"
C=CCc1c(C)nc(-c2ccccc2)nc1N/N=C/c1ccncc1,–,"inconclusive: 89.1 µM [inhibitor, single point]"
Fc1cccc(/C=N/Nc2ccc(Cl)nn2)c1,–,"inconclusive: 79.4 µM [inhibitor, partial curve]"

SMILES,"activity change, negative = inhibition",Potency
COC(=O)CN1C(=O)CSc2ccc(S(=O)(=O)N3CCOCC3)cc21,inactive: -0.0101%,–
OCCNc1nc(Nc2ccc(Cl)c(Cl)c2)nc2ccccc12,–,"inconclusive: 44.7 µM [inhibitor, single point]"
Nn1c(-c2ccccn2)nnc1-c1ccccn1,–,active: 31.6 µM
Cc1ccccc1NC(=O)CSC1=Nc2ccccc2C2=NC(CCC(=O)NCc3ccccc3)C(=O)N12 (configuration not stated),–,"inconclusive: 89.1 µM [inhibitor, single point]"
N#CC(C#N)=C1C=CC=CN1/C(=C\c1ccco1)C(=O)c1ccc(-c2ccccc2)cc1,–,"inconclusive: 79.4 µM [inhibitor, single point]"
O=[N+]([O-])c1ccc(OCCN2CCCCCC2)cc1,–,active: 50.1 µM
CCCCOC(=O)C(C)Nc1n[nH]c(=S)[nH]c1=O (configuration not stated),–,"inconclusive: 89.1 µM [inhibitor, single point]"
O=C(c1cccc(-n2cccc2)c1)N1CCN(S(=O)(=O)c2ccccc2)CC1,–,active: 8.91 µM
O=C(O)c1ccc(S(=O)(=O)/N=C2\C=C(Nc3ccccc3F)C(=O)c3ccccc32)cc1,–,active: 22.4 µM
Cc1nc(CC(=O)Nc2ccc(N(C)C)cc2)cs1,–,"inconclusive: 79.4 µM [inhibitor, single point]"
O=C(COc1nncc2ccccc12)Nc1ccc(F)c(F)c1,inactive: -5.88%,–
COc1ccc(Cc2nnc(SCC(=O)N3CCCCC3)o2)cc1,inactive: -20.9%,–
O=C(/C=C/c1ccco1)Nc1ccc(Cl)c(S(=O)(=O)N2CCOCC2)c1,–,"inconclusive: 44.7 µM [inhibitor, partial curve]"
COc1cc(C(=O)N2CCN(S(=O)(=O)c3cccs3)CC2)cc(OC)c1C,–,active: 50.1 µM
O=C(c1ccco1)N1CCN(C(c2ccc(F)cc2)c2nnnn2Cc2cccs2)CC1 (configuration not stated),–,"inconclusive: 89.1 µM [inhibitor, single point]"
O=C1c2c(O)cc(O)cc2O[C@@]12c1c(cc(O)c3c1O[C@H](c1ccc(O)cc1)[C@@H](O)C3)O[C@@H]2c1ccc(O)cc1,–,"inconclusive: 79.4 µM [inhibitor, single point]"
CCOC(=O)c1nn(-c2ccc(Cl)cc2Cl)c(=N)c(C#N)c1C,–,"inconclusive: 28.2 µM [inhibitor, partial curve]"
CC(C)(C)NCC(O)COc1c(F)cc(Br)cc1F (configuration not stated),inactive: -7.48%,–
Cc1cc(C)c(OCCCCN2CCC(C)CC2)c(Br)c1,–,"inconclusive: 89.1 µM [inhibitor, single point]"
O=C(O)c1c[nH]ccc1=O,–,"inconclusive: 89.1 µM [inhibitor, single point]"
COCCNC(=S)N/N=C(\C)c1ccccc1O,–,active: 10 µM
CCOc1ccc(-c2nc(SCC(=O)NCCOC)c(-c3ccc(OC)c(OC)c3)[nH]2)cc1,–,"inconclusive: 79.4 µM [inhibitor, partial curve]"
CC(c1ccco1)N(C(=O)c1ccc(F)cc1)c1ccccn1 (configuration not stated),–,"inconclusive: 79.4 µM [inhibitor, partial curve]"
